These are yes or no findings as the source states them, for the method shown. In cells and extracts the contact can be indirect. Some entries that bind do so weakly or less than the wild type. For some assays here: Where a sequence is shown, tags or fusion partners need not be part of it. Blank lines part the entries; values can stand above or below the binder they belong to.
Experiments:
[1] = target: endogenous FOXO4 (mouse MN9D cells and whole mouse brain) (mouse (endogenous in MN9D cells and mouse brain)) (UniProt Q9WVH3); experiment: co-IP; endogenous proteins, mouse neuroblastoma MN9D cell lysate; IP with anti-FOXO4 IgG, blot with indicated antibodies
[2] = target: endogenous FOXO4 (mouse MN9D cells and whole mouse brain) (mouse (endogenous in MN9D cells and mouse brain)) (UniProt Q9WVH3); experiment: co-IP; endogenous proteins, whole mouse brain lysate (50 mM Tris pH 7.4, 150 mM NaCl, 1% Triton X-100, 0.5% sodium deoxycholate, 0.1% SDS); IP with anti-FOXO4 IgG
[3] = target: endogenous FOXO4 (HEK293 cells) (human (endogenous in HEK293)) (UniProt P98177); experiment: co-IP; HEK293 cells transfected with FLAG-FBXO7 wild type or a deletion mutant; IP with anti-FOXO4 antibody (endogenous FOXO4); Fig. S1B
[4] = target: T1, endogenous FBXO7 (HEK293 cells) (human (endogenous in HEK293)) (UniProt Q9Y3I1); experiment: co-IP; HEK293 cells transfected 24 h with FLAG- or HA-tagged catalytically inactive caspases; endogenous FBXO7; text: IP with anti-FLAG or anti-HA and blot with anti-FBXO7; legend: IP with anti-FBXO7
T1 sequence: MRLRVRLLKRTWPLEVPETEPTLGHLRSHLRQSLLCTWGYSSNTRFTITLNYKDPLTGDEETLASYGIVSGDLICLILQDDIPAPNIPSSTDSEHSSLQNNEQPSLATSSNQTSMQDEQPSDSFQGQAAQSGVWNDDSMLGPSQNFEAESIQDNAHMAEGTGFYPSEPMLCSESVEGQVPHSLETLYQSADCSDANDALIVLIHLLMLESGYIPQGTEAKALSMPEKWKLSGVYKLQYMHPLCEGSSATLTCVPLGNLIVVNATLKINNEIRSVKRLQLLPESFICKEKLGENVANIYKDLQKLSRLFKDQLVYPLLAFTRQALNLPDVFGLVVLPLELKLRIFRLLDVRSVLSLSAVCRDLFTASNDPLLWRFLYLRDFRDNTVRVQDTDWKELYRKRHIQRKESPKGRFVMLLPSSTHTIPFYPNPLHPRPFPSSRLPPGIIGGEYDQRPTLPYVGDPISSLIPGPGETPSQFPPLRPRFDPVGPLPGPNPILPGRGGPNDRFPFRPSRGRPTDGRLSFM

Sequences of proteins named here, by UniProt entry; tags and fusion partners are left off.
UniProt Q9WVH3: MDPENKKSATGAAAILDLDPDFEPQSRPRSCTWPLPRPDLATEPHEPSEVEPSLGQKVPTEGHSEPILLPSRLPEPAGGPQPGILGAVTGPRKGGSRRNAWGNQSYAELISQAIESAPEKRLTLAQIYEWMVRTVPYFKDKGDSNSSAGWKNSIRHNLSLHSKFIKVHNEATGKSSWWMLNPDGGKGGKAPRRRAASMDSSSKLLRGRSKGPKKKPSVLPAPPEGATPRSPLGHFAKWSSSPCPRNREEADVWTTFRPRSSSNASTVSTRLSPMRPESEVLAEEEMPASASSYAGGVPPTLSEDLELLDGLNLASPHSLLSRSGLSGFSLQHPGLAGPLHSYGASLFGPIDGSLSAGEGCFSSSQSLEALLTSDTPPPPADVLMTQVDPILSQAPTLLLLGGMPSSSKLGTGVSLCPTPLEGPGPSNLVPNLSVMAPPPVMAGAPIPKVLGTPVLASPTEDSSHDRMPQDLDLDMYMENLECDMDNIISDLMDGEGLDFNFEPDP
UniProt P98177: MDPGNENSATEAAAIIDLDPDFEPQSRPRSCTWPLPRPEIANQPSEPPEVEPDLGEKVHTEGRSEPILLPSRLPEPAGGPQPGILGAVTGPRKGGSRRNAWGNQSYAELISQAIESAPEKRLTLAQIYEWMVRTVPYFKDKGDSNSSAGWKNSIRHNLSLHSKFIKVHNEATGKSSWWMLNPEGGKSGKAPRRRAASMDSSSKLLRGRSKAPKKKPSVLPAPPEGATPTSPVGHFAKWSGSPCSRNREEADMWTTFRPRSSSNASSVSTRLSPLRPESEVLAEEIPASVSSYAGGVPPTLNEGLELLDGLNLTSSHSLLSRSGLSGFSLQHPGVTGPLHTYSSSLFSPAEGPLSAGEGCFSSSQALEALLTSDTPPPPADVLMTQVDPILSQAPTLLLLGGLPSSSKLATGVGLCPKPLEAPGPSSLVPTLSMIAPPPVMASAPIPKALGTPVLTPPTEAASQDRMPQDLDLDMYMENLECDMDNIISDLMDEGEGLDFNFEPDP

binding [1]: binds
binding [2]: binds
B1: endogenous FBXO7 (mouse MN9D cells and whole mouse brain) (protein, UniProt Q3U7U3 1-523)
chain: MKLRVRLQKRTQPLEVPESEPTLGQLRAHLSQVLLPTLGFSSDTRFAITLNNKDALTGDEETLASYGIVSGDLICLVLEDDMPAPNLPSSTDTEHSSLQDNDQPSLAATPSQTNIPDEQGTDSSQGQATPFDAWTDDSMEGPSQNVEAESIQDAMSMEEVSGFHPLEPMLCNETEDGQVPHSLETLYQSAGCSNISDALIVLVHLLMLESGYIPQGTETKAVTMPEKWKSSGVYKLQYTHPLCEGGFAVLTCVPLGNLIIINATIKVNGGIKNVKSVQLQPGSYVAAGVEPGESAAKVYKDLKKLSRLFKDQLVYPLLAFTRQVLNLPDVFGLVVLPLELKLRIFRLLDVHSVLALSAVCHDLLIASNDPLLWRCLYLRDFRDGTVRGPDTDWKELYRKKHIQRKEAQRMRHAMFLPSAHPIPFCPIPVYPRAYLPTSLLPPGIIGGEYDERPILPSVGDPVTSLIPRPGELPGQFRPLRPRFDPVDPLPGPHSLLPGRAIPNNRFPFRPGRGRSADSRLPFL

binding [4]: no binding
B3: HA-caspase 10-C401A (enzyme, UniProt Q92851 1-521)
chain: MKSQGQHWYSSSDKNCKVSFREKLLIIDSNLGVQDVENLKFLCIGLVPNKKLEKSSSASDVFEHLLAEDLLSEEDPFFLAELLYIIRQKKLLQHLNCTKEEVERLLPTRQRVSLFRNLLYELSEGIDSENLKDMIFLLKDSLPKTEMTSLSFLAFLEKQGKIDEDNLTCLEDLCKTVVPKLLRNIEKYKREKAIQIVTPPVDKEAESYQGEEELVSQTDVKTFLEALPQESWQNKHAGSNGNRATNGAPSLVSRGMQGASANTLNSETSTKRAAVYRMNRNHRGLCVIVNNHSFTSLKDRQGTHKDAEILSHVFQWLGFTVHIHNNVTKVEMEMVLQKQKCNPAHADGDCFVFCILTHGRFGAVYSSDEALIPIREIMSHFTALQCPRLAEKPKLFFIQAAQGEEIQPSVSIEADALNPEQAPTSLQDSIPAEADFLLGLATVPGYVSFRHVEEGSWYIQSLCNHLKKLVPRMLKFLEKTMEIRGRKRTVWGAKQISATSLPTAISAQTPRPPMRRWSSVS

More lines, now with the values behind:

B2: FLAG-tagged FBXO7 deletion mutant lacking the C-terminal region spanning amino acids 376-522 (domain or fragment, UniProt Q9Y3I1 1-375)
chain: MRLRVRLLKRTWPLEVPETEPTLGHLRSHLRQSLLCTWGYSSNTRFTITLNYKDPLTGDEETLASYGIVSGDLICLILQDDIPAPNIPSSTDSEHSSLQNNEQPSLATSSNQTSMQDEQPSDSFQGQAAQSGVWNDDSMLGPSQNFEAESIQDNAHMAEGTGFYPSEPMLCSESVEGQVPHSLETLYQSADCSDANDALIVLIHLLMLESGYIPQGTEAKALSMPEKWKLSGVYKLQYMHPLCEGSSATLTCVPLGNLIVVNATLKINNEIRSVKRLQLLPESFICKEKLGENVANIYKDLQKLSRLFKDQLVYPLLAFTRQALNLPDVFGLVVLPLELKLRIFRLLDVRSVLSLSAVCRDLFTASNDPLLWRFL
binding [3]: binds

B4: FLAG-tagged FBXO7 deletion mutant lacking the N-terminal region of amino acid 1-333 (domain or fragment, UniProt Q9Y3I1 334-522)
chain: VLPLELKLRIFRLLDVRSVLSLSAVCRDLFTASNDPLLWRFLYLRDFRDNTVRVQDTDWKELYRKRHIQRKESPKGRFVMLLPSSTHTIPFYPNPLHPRPFPSSRLPPGIIGGEYDQRPTLPYVGDPISSLIPGPGETPSQFPPLRPRFDPVGPLPGPNPILPGRGGPNDRFPFRPSRGRPTDGRLSFM
binding [3]: no binding
